PubChem BioAssay AID1508624 (National Center for Advancing Translational Sciences (NCATS), 2021)
In all, about 48,000 compounds went through this assay and about 120 (0.25%) were called active. Not shown: some 4% with an inconclusive outcome. Calls come from the whole dose curve; as a rule, active = well fitted activation curve with a large enough effect; inconclusive = small, poorly fitted or top-dose-only effect, or another doubt; inactive = no such curve, though single readings can be large or run the other way. Some of the results follow.

Experiment: Primary qHTS for Identification of Small Molecule Activators of Huntingtin-Antisense Promoter Activity; note: nearly all actives have a fitted effect of over 55% in size
Conditions: HEK293 HTT-AS promoter firefly luciferase reporter (activity 0% = vehicle and -100% = no light), 24 h; series mostly up to 57.5 µM; activity change, positive = activation: at the top concentration
How it was run: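 Firefly luciferase readout (Dual-Glo, 10 min RT) after 24 h, 37 °C compound exposure (final up to 57.5 uM) of HEK293 reporter cells cultured 24 h beforehand; PTC124 at 50 uM final as control inhibitor; activity scaled vehicle 0%, zero RLU -100%.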

Activity change, positive = activation, inactive:
Cc1ccsc1CN(C(=O)COc1ccccc1Cl)C1CCS(=O)(=O)C1 (stereo unspecified) -9.8%
N#Cc1nc(-c2ccc(COc3ccc(Cl)cc3)o2)oc1N1CCCCC1 -23.6%
COc1ccccc1N1CCN(c2nc3c(S(=O)(=O)c4ccccc4)nnn3c3ccc(Cl)cc23)CC1 5.27%
CCOC(=O)c1scc(-c2ccccc2)c1S(=O)(=O)Nc1ccccc1OC -35.8%
COc1ccc(CNS(=O)(=O)c2ccc(C(=O)N(C)C)s2)cc1 -8.23%
O=C1c2[nH]nc(-c3ccccc3O)c2C(c2cccc(OCc3ccccc3)c2)N1CCCO (stereo unspecified) -43.9%
Fc1ccc(N2CCN(Cc3nnc(-c4ccccc4Cl)o3)CC2)cc1 -24.7%
COc1ccc(Cn2c(SCc3ccc(C(=O)NC4CCCCC4)cc3)nc3ccncc32)cc1 -29.8%
CCc1cccc(C)c1Nc1c(-c2ccc(F)cc2)nc2sccn12 -19.2%
CCOc1ccc(NC(=O)CSc2ncc(S(=O)(=O)c3ccc(F)c(C)c3)c(=O)[nH]2)cc1 -9.23%
Cc1ccc(CNc2nc(-c3ccco3)nn2C(=O)c2ccccc2[N+](=O)[O-])cc1 23.8%
CCc1ccc(C(c2ccccc2)c2c(C)[nH]c3ccccc23)s1 (stereo unspecified) -24.8%
Cc1cc(C)c(NC(=O)CSc2nc3ccccc3c3nc(-c4ccccc4)nn23)c(C)c1 8.92%
Cc1cccc(CNC(=O)c2ccc3c(c2)N(C)CCS3)c1 -11.2%
CC(C)(C)c1cc(C=O)cc(C(C)(C)C)c1O -1.07%
COc1ccc(NC(=O)Cn2c(=O)n(CCCC(=O)NCc3ccccc3Cl)c(=O)c3ccccc32)c(OC)c1 -32%
Cc1ccccc1CNC(=O)Cn1nc(C)c2nn(-c3ccc(Cl)cc3)c(C)c2c1=O -36.3%
CCOC(=O)c1sc2ccccc2c1S(=O)(=O)Nc1cc(OC)ccc1OC -17.9%
COc1ccc(CNCc2c(C(=O)O)c(C)n(Cc3ccccc3C)c2C)cc1OC -5.48%
Cc1ccc(C)c(N2CCN(S(=O)(=O)c3ccc4[nH]c5c(c4c3)CCCC5)CC2)c1 -23.4%
COc1ccc(N2CCN(c3ncccc3-c3nc(-c4ccccc4C)no3)CC2)cc1 -9.09%
CCc1ccc(NC(=O)Cn2c(=O)c3cccn3c3ccccc32)cc1 -43.6%
CCc1cccc(C)c1NC(=O)CN1CCN(Cc2ccccc2Cl)S1(=O)=O -23.2%
O=C(Nc1ccc(-c2nc3cc(Cl)ccc3o2)cc1)c1cc(Br)ccc1Cl 5.69%
CCN(C(=O)CSc1nc2ccccc2c2nc(CCn3c(C)nc4ccccc43)nn12)c1cccc(C)c1 -2.93%
COc1cc(C(=O)NC2(C(F)(F)F)C(=O)NC(C)=C2C#N)cc(OC)c1OC (stereo unspecified) 4.64%
CCN(CC)S(=O)(=O)c1ccc2c(c1)N(CC(=O)N1CCN(c3cccc(C)c3)C(C)C1)C(=O)CO2 (stereo unspecified) -18.2%
Cc1cccc(NC(=O)CCn2cnnn2)c1 -13.4%
COc1ccc(-c2csc3nc(-c4ccc(Cl)cc4)oc(=O)c23)cc1 -0.671%
CC(=O)c1ccc(N2CCN(C(=O)Nc3ccc(C)cc3)CC2)cc1 -23.7%
Cc1ccc(Nc2c(-c3ccc(N4CCOCC4)cc3)nc3ccc(C)cn23)cc1 -11.6%
Cn1c(=O)oc2cc(S(=O)(=O)NC(CC(=O)O)c3cccc(Br)c3)ccc21 (stereo unspecified) -6.03%
COc1ccc(NC(=O)CSc2nnc(N)s2)cc1 5.28%
COc1ccc(N2CC(C(=O)NCCS(=O)(=O)N3CCN(c4ccccc4)CC3)CC2=O)cc1 (stereo unspecified) 10.5%
CC(C)OCCCNC(=O)c1cn(C)c2ccc(S(=O)(=O)N(C)C3CCCCC3)cc2c1=O -0.187%
O=C(CCCN1CCN(c2ccccn2)CC1)c1ccc(F)cc1 -19.7%
COc1ccc(S(=O)(=O)N2CCC(Oc3cccc(C(F)(F)F)c3)CC2)cc1OC -5.38%
CCNc1cc(NC2CCC(O)CC2)nc(Nc2ccc3c(ccn3Cc3ccccc3)c2)n1 (stereo unspecified) -21.1%
CCc1cccc(NC(=O)c2cnc(N3CCOCC3)c3ccccc23)c1 -29.6%
Cc1c(C(=O)N2CCCC2)oc2c1-c1nn(CC(=O)NCc3ccc(OC(C)C)cc3)cc1CC2 -44.9%
CN(CC(=O)Nc1ccc(OC(F)(F)F)cc1)S(=O)(=O)c1ccc2c(c1)CCC(=O)N2 -34%
Cc1ccc2occ(-c3cc(-c4ccccc4)nc4c3COc3ccccc3-4)c(=O)c2c1 -3.29%
CCOC(=O)c1cc(-c2ccccc2)n(CCCC(=O)Nc2ccc(C)c(Cl)c2)c1C -27.9%
Cc1ccc(C)c(NC(=O)CSc2nc3nccnc3c(=O)n2CCc2c[nH]c3ccccc23)c1 -24.7%
Cc1ccc(-n2c(=O)c3c(C)c(C(=O)N(C)C)sc3n(CC(=O)N(C)c3ccccc3)c2=O)cc1C -6.95%
O=C(Nc1ccc(-c2cc(C(F)(F)F)nn2-c2ccccc2)cc1)c1cccc(F)c1 -73%
CCN(CC)c1ccc(C(=O)NCc2ccc3c(c2)CCN3C(=O)c2ccccc2)cc1 12.2%
CCN1CCC(N(Cc2cccc(OC)c2)C(=O)Nc2cccc(C(F)(F)F)c2)CC1 -13.9%
Cc1ccc2c(c1)N(C(=O)CCC(=O)Nc1ccccc1Cl)CC(C)O2 (stereo unspecified) -1.35%
O=c1cc(CSc2ncn[nH]2)[nH]c2c(Cl)cccc12 1.61%
COc1ccc(OC)c(Nc2nc(-c3ccc(C)cc3)nc3ccccc23)c1 -4.05%
CCOC(=O)c1c(C)[nH]c(C)c1S(=O)(=O)NCC(=O)Nc1cccc(C(F)(F)F)c1 -3.02%
CCOc1ccc(C2c3c(-c4ccc(C)cc4)n[nH]c3C(=O)N2c2ccc(Cl)cc2)cc1 (stereo unspecified) -55.3%
CC1CCCN(C(=O)Cn2c(=O)oc3cc(S(=O)(=O)N4CCCCC4)ccc32)C1 (stereo unspecified) 3.45%
Cc1ccc(F)c(NC(=O)Nc2ccc(-c3cccc4[nH]nc(N)c34)cc2)c1 -1.06%
Cc1cccc(NC(=O)NCCn2c(=O)oc3ccc(C)cc32)c1 -9.71%
Cc1oc2c(c1C(=O)NCc1cccc(Br)c1)C1=NCCN1C=N2 -6.91%
CCOC(=O)Cn1c(=O)n(CC2CCCO2)c2nc(-c3ccc(OC)cc3OC)nc(C(N)=O)c21 (stereo unspecified) -7.97%
Cc1ccc(CNC(=O)CCCn2c(=O)c3ccccc3n(CC(=O)C(C)(C)C)c2=O)cc1 -22.2%
COc1cc(NC(=O)C(CC(C)C)NS(=O)(=O)c2ccc3c(c2)CCCC(=O)N3)cc(OC)c1 (stereo unspecified) -9.68%
COc1ccc(CNC(=O)CN(c2ccc(C)cc2)S(=O)(=O)c2c(C)n[nH]c2C)cc1 -5.36%
